Among all 46,000 compounds or so, about 60 (0.1%) were called active. About 3% were inconclusive and are not listed. Calls come from the whole dose curve; as a rule, active = well fitted inhibition curve with a large enough effect; inconclusive = small, poorly fitted or top-dose-only effect; inactive = no such curve, though single readings can be large or run the other way. Some of the results follow.

The nature of this assay: Primary qHTS assay for Inhibitors of ovarian cancer metastasis using an organotypic tumor microenvironment (TME) model.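 For activity change, negative = inhibition: plate controls were DMSO wells for no effect and tomatine positive control wells for full effect.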 Note: nearly all actives have a fitted effect of over 65% in size. As to conditions: SKOV3ip1-GFP adhesion/invasion on 3D omental model, fluorescence; series mostly up to 45.8 µM; activity change, negative = inhibition: at the top concentration. The procedure, abridged:
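Adhesion/invasion was scored as fixed GFP-labeled SKOV3ip1 cell counts (488/509 nm), normalized to DMSO and tomatine controls. Cancer cells in serum-free medium, with four compound doses (0.36-46 umol/L), sat 2 hr at RT then 16 hr at 37 C on a 48 hr fibroblast/mesothelial/ECM culture.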
For orientation: qHTS replaces the single test concentration by a dilution series.
`CCc1nonc1NC(=O)c1oc2cc(C)c(Cl)cc2c1C`: the call was inactive.
For `Cc1nc2ccn(Cc3cccs3)c(=O)c2cc1C(=O)NCc1ccccc1`, the “activity change, negative = inhibition” value was inactive: -3.68%.
Same read-out and setting: in the case of `COc1ccc(NC(=O)CSc2oc(-c3cccs3)nc2S(=O)(=O)c2ccc(Br)cc2)c(OC)c1` it was inactive: 1.78%; in that of `CCOc1ccc2c(c1)[C@@H]1C=CC[C@@H]1[C@H](c1ccccc1Cl)N2`, inactive: -8.69%.
Regarding `Cc1ccc(Nc2nnc(-c3ccc(C)c(S(=O)(=O)N4CCCCC4)c3)c3ccccc23)cc1`, the outcome was inactive.
Regarding `Cc1ccc(CCNC(=O)CN2C(=O)COc3ccc(S(=O)(=O)N4CCCCC4)cc32)cc1`, the “activity change, negative = inhibition” value was inactive: 24.3%.
Consider `O=C(NCCc1ccccc1)c1ccc2c(c1)N(Cc1ccccc1)C(=O)c1ccccc1S2=O` (stereo not drawn), for which the “activity change, negative = inhibition” value was inactive: -13.3%.
Still for that read-out and setting: the result for `Cc1cccc(-c2nc3c(cnn3-c3ccccc3)c(=O)n2-c2cccc(Cl)c2)c1` reads inactive: 7.11%; that for `CC(C)(C)OC(=O)N1CCC(c2c(C(=O)Nc3ccc4c(c3)OCCO4)cnn2-c2ccc(F)cc2)CC1`, inactive: -14.4%; that for `Cc1ccc(CNC(C)c2ccccc2)s1` (stereo not drawn), inactive: 39.2%.
For `COc1ccc(C2C(=O)N(C3CCCCCC3)CC(=O)N2CCc2ccccc2)cc1` (stereo not drawn), the result was inactive.
In the case of `Cn1cnc2c(=O)oc3ccc(S(=O)(=O)N4CCN(c5ccccc5)CC4)cc3c21`, the “activity change, negative = inhibition” value was inactive: -7.29%.
The same measure, in the same setting: the result for `CC(C)(C)OC(=O)N1CCC(c2c(C(=O)Nc3cccc(C(F)(F)F)c3)cnn2-c2ccc(F)cc2F)CC1` reads inactive: 13.4%; that for `CCN(CC)S(=O)(=O)c1ccc2c(c1)c(=O)c(C(=O)N(C)Cc1ccccc1)cn2C`, inactive: -5.93%.
On to `Cc1ccc(C)c(NC(=O)CCCN2C(=O)COc3ccc(C)cc32)c1`, for which the molecule was called inactive.
Same read-out and setting: in the case of `Cc1cc(C)cc(NC(=O)CSc2nnc(COc3ccccc3Cl)o2)c1` it was “inactive”.
Consider `CN(C)c1ccc(CNC(=O)c2cc3ccccn3n2)cc1`, for which the “activity change, negative = inhibition” value is inactive: 14.6%.
Still for that read-out and setting: in the case of `CN(C)c1ccc(C(CNC(=O)Cc2ccc(Cl)cc2)N2CCOCC2)cc1` (stereo not drawn) it was inactive: 7.34%.
For the molecule `CCOC(=O)C1CCN(C(=O)CSc2n[nH]c(-c3ccccc3Cl)n2)CC1`, the molecule was classed as inactive.
Take `O=C1CN(C(=O)c2ccc(Cl)cc2Cl)C(c2ccc(F)cc2)c2cc(F)ccc2N1` (stereo not drawn): the “activity change, negative = inhibition” value was inactive: 3.8%.
On the same count and under the same terms, the result for `Cc1cc(OCC(=O)Nc2cnn(CCCC(=O)O)c2)ccc1Cl` reads inactive: 2.03%.
Turning to `CC1CCN(S(=O)(=O)c2ccc3ncn(CC(=O)Nc4ccccc4C(F)(F)F)c(=O)c3c2)CC1`, the call was inactive.
In the case of `Cc1nn(-c2ccccc2)c(-n2cccc2)c1C(=O)NCc1ccccc1Cl`, the “activity change, negative = inhibition” value is inactive: 18.9%.
As for `CCOC(=O)CC(NC(=O)Cn1nnc(-c2ccc(C(F)(F)F)cc2)n1)c1ccccc1Cl` (stereo not drawn), the call was inactive.
On to `COc1ccc(C)cc1NC(=O)c1cc2c(s1)-c1ccccc1SC2`, for which the “activity change, negative = inhibition” value is inactive: 7.96%.
The same measure, in the same setting: in the case of `CC(=O)Nc1cc(C(=O)NCc2ccc(F)cc2)ccc1Sc1ccc(C)cc1` it was inactive: -4.92%; in that of `Cc1ccc(S(=O)(=O)c2nc(-c3ccco3)oc2SC(C)C)cc1`, inactive: 4.6%.
On the same count and under the same terms, in the case of `COc1ccc(CCNC(=O)Cc2c(C)c3c(cc(C)c4c(C)c(C)oc43)oc2=O)cc1OC` it was inactive: -4.97%.
In the case of `Cc1ccc(NC(=O)Cn2c(=O)n(-c3ccc(C)cc3)c(=O)c3ccc(C(=O)NCc4ccccc4Cl)cc32)cc1`, the molecule was called inactive.
With `O=C(NCc1cccs1)c1nn(-c2ccccc2)nc1CO`, the “activity change, negative = inhibition” value was inactive: -0.98%.
The same measure, in the same setting: the result for `CCOc1ccc(NC(=O)CSc2cc(C)c3ccccc3n2)cc1` reads inactive: -1.42%; that for `CCCn1c2ccccc2c2cnn(CC(=O)Nc3cccc(C(=O)OCC)c3)c(=O)c21`, inactive: -0.919%.
Regarding `CCOc1ccc(CNC(=O)CN2C(=O)CCn3nc(-c4cn(C)c5ccccc45)cc32)cc1OC`, the “activity change, negative = inhibition” value is inactive: 1.64%.
In the case of `COc1cccc(C2C(C(=O)Nc3ccc(Cl)cc3)=C(C)Nc3c(C(=O)Nc4ccccc4)cnn32)c1OC` (stereo not drawn), the “activity change, negative = inhibition” value is inactive: -11.1%.
On the same count and under the same terms, the result for `CC1(C(=O)NC2CCCCC2)Cc2ccccc2C(=O)N1Cc1ccc(Cl)cc1` (stereo not drawn) reads inactive: 25.2%.
On to `Cc1c(C)n(Cc2ccc(F)cc2)c2ccc(C(=O)N3CCN(c4ccc(Cl)cc4)CC3)cc12`, for which the molecule was classed as inactive.
As to `Cn1c(=O)c2c(nc(SCC(=O)Nc3ccc(F)cc3F)n2Cc2ccccc2)n(C)c1=O`, the “activity change, negative = inhibition” value is inactive: 2.55%.
With `Cc1ccc(NC(=O)CN2Cc3ccccc3C2=O)c(C)c1`, the “activity change, negative = inhibition” value was inactive: 5.19%.
The same measure, in the same setting: the result for `CCOC(=O)c1cccc(NC(=O)CCS(=O)(=O)c2ccc(Br)s2)c1` reads inactive: -11.2%; that for `COc1ccc(NC(=O)c2cc(-c3ccc4c(c3)OCO4)on2)c(OC)c1`, inactive: -2.82%.
On to `Cc1cc(C)cc(NC(=O)c2sc3nc(-c4ccccc4)cn3c2C)c1`, for which the “activity change, negative = inhibition” value was inactive: -24.3%.
The same measure, in the same setting: the result for `CC(=O)Nc1nonc1-c1nnc(SCc2ccc(F)cc2Cl)n1C` reads inactive: -0.605%.
For `Cc1cn2c(=O)cc(COc3cc(C)c(Cl)c(C)c3)nc2s1`, the outcome was inactive.
The same measure, in the same setting: in the case of `CCC(C)NC(=O)Cn1c(=O)n(CCCC(=O)NCc2ccc(C)cc2)c(=O)c2ccccc21` (stereo not drawn) it was “inactive”.
Regarding `CC1CCCCN1S(=O)(=O)c1ccc(F)c(C(=O)Nc2ccccc2C(F)(F)F)c1` (stereo not drawn), the “activity change, negative = inhibition” value is inactive: 7.64%.
Take `CCOC(=O)C1CCN(c2cc3c(cc2NC(=O)c2ccc(OC)c(OC)c2)n(C)c(=O)n3C)CC1`: the “activity change, negative = inhibition” value is inactive: 7.26%.
With `COc1ccc(S(=O)(=O)N2CCN(Cc3nc4ccc(C)cc4o3)CC2)cc1OC`, the “activity change, negative = inhibition” value is inactive: 1.97%.
`Cc1cccc(CNC(=O)Cc2csc3ccccc23)c1`: the outcome was inactive.

These data come from PubChem BioAssay AID1963576 (National Center for Advancing Translational Sciences (NCATS), 2024).
